Reference: the supplement of paper PMC10126150
Values marked as one replicate rest on one cluster of the flow cell; about a third of the high ones do not repeat.

Each sequence was assayed on ATP (assay: switch fluorescence ratio, 500 uM ATP over buffer (Cy3 cluster intensity, sum of 5 cycles each) (fold (ratio)); higher = stronger signal-on switching upon ATP binding; sequences stand for … in TCGTCGGCAGCGTCAGATGTGTATAAGAGACAGTTTTTTTTTTTTTTTTTTTTTTTTT…TC). Details: aptamer strand: ATP DNA aptamer (quencher-CACCTGGGGGAGTATTGCGGAGGAAGG + anchor), 100 nM annealed; ATP concentration: 500 uM; one replicate.
Summary of the method: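 Switching-strand clusters labelled with Cy3 on a modified Illumina MiSeq flow-cell were annealed to 100 nM quencher-labelled ATP aptamer, imaged in selection buffer, and re-imaged after 15 min with 500 uM ATP at 22 °C. This was done over five cycles with NaOH stripping and re-annealing in between. The fluorescence ratio is summed target-cycle over summed buffer-cycle Cy3 intensity per cluster, averaged per switch-domain sequence, excluding clusters outside 100-1000 RFU.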
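Note: ATP exposure 15 min at 22 °C before imaging.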

| Sequence | switch fluorescence ratio |
| --- | --- |
| CTTGCGCGCC | 1 |
| CTTGCGGCAC | 1.42 |
| CTTGCGTCTG | 1.03 |
| CTTGCGTGAA | 1.02 |
| CTTGCGTGGG | 0.975 |
| CTTGCTACTC | 1.98 |
| CTTGCTCTTT | 0.999 |
| CTTGGACCAG | 1.04 |
| CTTGGTGATC | 1.05 |
| CTTGGTTGTT | 1.03 |
| CTTGTATCTG | 1 |
| CTTGTTATTT | 0.971 |
| CTTGTTGGGG | 0.977 |
| CTTGTTTCGT | 1.02 |
| CTTTAAACAT | 1.03 |
| CTTTAACTTG | 1.06 |
| CTTTACGCGG | 0.98 |
| CTTTAGTAGA | 1.02 |
| CTTTATCATC | 0.99 |
| CTTTATGGG | 0.974 |
| CTTTCACGTT | 0.964 |
| CTTTCAGAAT | 1 |
| CTTTCATCTG | 1.05 |
| CTTTCGGCTC | 1.09 |
| CTTTCTCGGC | 2.1 |
| CTTTCTGGCG | 0.945 |

| Sequence | switch fluorescence ratio |
| --- | --- |
| CTTTGCCCTC | 0.961 |
| CTTTGCTGGA | 1.05 |
| CTTTGGAAAA | 1.02 |
| CTTTGGCCTA | 1.02 |
| CTTTGGGCAT | 1.01 |
| CTTTGTTTGC | 1.07 |
| CTTTTAGCAT | 1.16 |
| CTTTTAGTCG | 0.993 |
| CTTTTATCGT | 0.985 |
| CTTTTATTTG | 0.979 |
| CTTTTGCTGG | 0.983 |
| CTTTTGGGCT | 1.05 |
| CTTTTTTATG | 1.01 |
| CTTTTTTC | 1.02 |
| CTTTTTTCGT | 1.04 |
| GAAAAAATTG | 1.32 |
| GAAAAACAAT | 1.23 |
| GAAAAACGCC | 1.44 |
| GAAAAACGGT | 1.01 |
| GAAAAATACT | 0.997 |
| GAAAAATCCT | 3.67 |
| GAAAACCCAA | 1.09 |
| GAAAACGGCG | 1.02 |
| GAAAACTCTG | 0.993 |
| GAAAAGAGAA | 0.957 |
| GAAAAGGATG | 1 |

| Sequence | switch fluorescence ratio |
| --- | --- |
| GAAAATTTGC | 1.01 |
| GAAACAGTTA | 0.966 |
| GAAACATTTA | 1.01 |
| GAAACCATGA | 1.05 |
| GAAACCCCGT | 1.01 |
| GAAACCGGAA | 1.72 |
| GAAACCTTCT | 2.64 |
| GAAACGCGC | 1.06 |
| GAAACGGTAT | 1.07 |
| GAAACGGTCT | 0.987 |
| GAAACTCGG | 1.03 |
| GAAAGAAGCT | 0.96 |
| GAAAGAATGT | 0.994 |
| GAAAGACAC | 1.05 |
| GAAAGCAAGT | 1.33 |
| GAAAGCGCGC | 0.966 |
| GAAAGGCCCG | 1.05 |
| GAAAGGCTCA | 1 |
| GAAAGGGCAC | 1 |
| GAAAGGGCG | 1.02 |
| GAAAGTGCTT | 0.954 |
| GAAAGTTTGA | 1.07 |
| GAAATAGATT | 0.968 |
| GAAATATCGA | 0.991 |
| GAAATCAGG | 1.01 |
| GAAATGGCGC | 1.06 |

| Sequence | switch fluorescence ratio |
| --- | --- |
| GAAATGGGCT | 1.01 |
| GAAATGGTG | 1.02 |
| GAAATGTTAT | 0.979 |
| GAAATGTTT | 1.02 |
| GAAATTAGGT | 1.01 |
| GAAATTGCC | 0.954 |
| GAAATTTTAT | 1.01 |
| GAACAGTGCG | 1.01 |
| GAACATAGCG | 0.999 |
| GAACATGCGC | 1.08 |
| GAACCACGAG | 1.07 |
| GAACCAGAGT | 1.01 |
| GAACCATCCT | 1.6 |
| GAACCCAACG | 1.21 |
| GAACCCATTT | 1.05 |
| GAACCGTACT | 1.27 |
| GAACCTGCGT | 0.949 |
| GAACCTTTTC | 1.62 |
| GAACGAATG | 0.979 |
| GAACGAGTCA | 0.971 |
| GAACGTAGGC | 1.03 |
| GAACTAAATT | 1 |
| GAACTACTCT | 0.974 |
| GAACTAGAAC | 1.02 |
| GAACTATGAT | 1.05 |
| GAACTCGGCC | 1.1 |

| Sequence | switch fluorescence ratio |
| --- | --- |
| GAACTGGATT | 1.06 |
| GAACTGGGT | 1.01 |
| GAACTGGTTC | 0.974 |
| GAACTGTCTG | 1.03 |
| GAACTGTGGG | 1.05 |
| GAACTTCGTT | 0.997 |
| GAAGAAGTGC | 1.47 |
| GAAGATTGCG | 0.994 |
| GAAGCAGGTA | 1.1 |
| GAAGCCGTAT | 1.02 |
| GAAGCGCGA | 1.09 |
| GAAGCGCTGA | 1.04 |
| GAAGCTATGA | 1.2 |
| GAAGCTGCGT | 1.02 |
| GAAGGATATG | 0.966 |
| GAAGGCAGTA | 1.04 |
| GAAGGCAGTT | 1.01 |
| GAAGGGACAG | 1 |
| GAAGGGCCCT | 1.03 |
| GAAGGGCTTG | 0.991 |
| GAAGTAACCC | 1.05 |
| GAAGTAAGTT | 0.997 |
| GAAGTATAGG | 0.994 |
| GAAGTATGAG | 1.06 |
| GAAGTCAGAC | 1.12 |
| GAAGTGAAGC | 1.02 |

| Sequence | switch fluorescence ratio |
| --- | --- |
| GAAGTGCCGG | 1.05 |
| GAATAAGGGT | 1 |
| GAATAAGTAA | 1.07 |
| GAATAATGGT | 0.99 |
| GAATACAAGG | 1.03 |
| GAATACATGG | 1.02 |
| GAATAGAGCA | 1.08 |
| GAATAGCATT | 0.992 |
| GAATATAAGG | 1.02 |
| GAATATATGA | 1.03 |
| GAATCACACG | 1.02 |
| GAATCAGCCC | 0.984 |
| GAATCCAAGC | 0.96 |
| GAATCCTT | 1.03 |
| GAATCGGGG | 1.04 |
| GAATCGTCAT | 0.951 |
| GAATCTTGTA | 0.99 |
| GAATGAGAGC | 1.01 |
| GAATGATAGT | 0.972 |
| GAATGCAGGT | 1.01 |
| GAATGCCAGG | 1.05 |
| GAATGCCTT | 1.01 |
| GAATGCCTTC | 1.03 |
| GAATGCGATT | 0.996 |
| GAATGCGGTG | 1.01 |
| GAATGGCCGC | 1.01 |

| Sequence | switch fluorescence ratio |
| --- | --- |
| GAATGGCGCT | 0.942 |
| GAATGGTAGA | 1 |
| GAATGGTGTG | 1.01 |
| GAATGTAAAA | 0.976 |
| GAATGTAGTG | 0.96 |
| GAATGTTTCT | 0.991 |
| GAATTAGC | 1 |
| GAATTCATCT | 1 |
| GAATTCGTCT | 0.989 |
| GAATTCTTCA | 1.4 |
| GAATTGCAGG | 1.03 |
| GAATTTATGT | 0.95 |
| GAATTTCCGG | 1.05 |
| GAATTTGAAG | 0.98 |
| GACAAATCTT | 1.06 |
| GACAAATTC | 0.984 |
| GACAACCCCG | 1.02 |
| GACAAGTTGC | 1.02 |
| GACACAACTG | 0.886 |
| GACACACGGT | 1.25 |
| GACACAGGTC | 1.12 |
| GACACGAAGC | 1.06 |
| GACACGGGAA | 1.06 |
| GACACGTCCC | 1.07 |
| GACACTGTGC | 1.06 |
| GACACTTTTG | 1.1 |

| Sequence | switch fluorescence ratio |
| --- | --- |
| GACAGAATTG | 1.03 |
| GACAGCGTTC | 1.09 |
| GACAGGAAAA | 1.06 |
| GACAGGGCTT | 0.992 |
| GACAGGGGTG | 1.01 |
| GACAGTACCT | 1.49 |
| GACAGTGTCA | 1.01 |
| GACAGTTGTC | 0.983 |
| GACATAAGCC | 0.981 |
| GACATAATTG | 1.01 |
| GACATACATC | 1.27 |
| GACATAGCTT | 1.03 |
| GACATAGTCG | 1 |
| GACATATGTT | 1 |
| GACATATTTA | 1.04 |
| GACATCCTAA | 1.03 |
| GACATGTAGG | 1.02 |
| GACATGTTAA | 1.01 |
| GACATTTCAG | 1 |
